# From PubChem BioAssay AID1454 (National Center for Advancing Translational Sciences (NCATS), 2008)
# The whole screen tested about 130,000 compounds, of which about 550 (0.42%) were called active. This list was built around the results that the source calls inconclusive (neither active nor inactive); the mix of calls is not that of the screen. The call rests on the fitted dose curve; in most records, active means well fitted inhibition curve with a large enough effect; inconclusive means small, poorly fitted or top-dose-only effect, or effect the other way; inactive means flat fitted curve, though single readings scatter. No potency is given beside an inconclusive call; the fits are too rough.
# Test: qHTS Assay for Inhibitors of the ERK Signaling Pathway using a Homogeneous Screening Assay; Stimulation with EGF; further: nearly all actives have a fitted effect of over 55% in size;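 on activity change, negative = inhibition: plate controls were stimulated vehicle wells for no effect and unstimulated vehicle basal for full effect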
# Conditions: HEK293-V1b, EGF-stimulated phospho-ERK AlphaScreen; activity change, negative = inhibition: at the top concentration
# Outline: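 After overnight plating in 1% FBS, HEK293-V1b cells received test compound for half an hour, then a 5 min pulse of EGF (25 nM); ERK phosphorylation in lysates was read by bead-based AlphaScreen.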
# Tags describe the fitted curve by direction and shape.
SMILES,Potency,"activity change, negative = inhibition"
Cc1cccc(N=Nc2cn[nH]c2-c2ccco2)c1,"inconclusive [inhibitor, single point]",–
O=C(N/N=C/c1ccccc1OC(=O)c1ccc2c(c1)OCO2)c1cccc(F)c1,–,inactive: -2.04%
Cc1cccc(Nc2ncnc3nc[nH]c23)c1,active: 28.2 µM,–
COc1ccccc1N1CCN(c2ccc([N+](=O)[O-])cc2Cl)CC1,"inconclusive [inhibitor, partial curve]",–
COc1ccccc1-c1cncnc1NCc1cccc(C)c1,–,inactive: 23.1%
C=C(C)C(=O)/C=C/C=C/c1ccccc1,–,inactive: -20.6%
COc1ccc(NC(=S)NCCc2c[nH]c3ccccc23)c(OC)c1,"inconclusive [inhibitor, partial curve, poor fit]",–
C/C(=C\c1ccccc1)CN1CCN(Cc2ccc(C)o2)C(CCO)C1 (centres undefined),–,inactive: -4.27%
CN(C)S(=O)(=O)c1ccc(C(=O)Nc2nnc(-c3cccs3)o2)cc1,–,inactive: 4.61%
C=CCN=C1S/C(=C/c2cccc([N+](=O)[O-])c2)C(=O)N1CC=C,"inconclusive [inhibitor, single point]",–
COc1ccc2c(c1)O[C@@H]1c3ccc(OC)cc3OCC21 (some centres undefined),–,inactive: 2.33%
CN(C)CCN(C(=O)c1ccc(S(=O)(=O)N(C)c2ccccc2)cc1)c1nc2cc3c(cc2s1)OCCO3,"inconclusive [inhibitor, single point]",–
CN(C)C(CNC(=O)c1ccc2nc[nH]c2c1)c1ccccc1 (centres undefined),"inconclusive [inhibitor, single point]",–
CC1=NNC(=O)/C1=C\c1cn(-c2ccccc2)nc1-c1ccc(F)cc1,"inconclusive [inhibitor, single point]",–
COc1ccc(-c2ccc(SCC(=O)Nc3cccc(C(C)=O)c3)nn2)cc1OC,"inconclusive [inhibitor, single point]",–
CCCCc1ccc(NC(=S)Nc2ccc(Nc3ccc(OC)cc3)cc2)cc1,"inconclusive [inhibitor, single point]",–
OC(COc1cccc(OCC(O)CN2CCOCC2)c1)CN1CCOCC1 (centres undefined),"inconclusive [activator, full curve, poor fit]",–
C/C(=N\Nc1ccc(S(=O)(=O)Nc2ccc(Cl)cc2)cc1[N+](=O)[O-])c1ccc(N2CCOCC2)cc1,"inconclusive [inhibitor, partial curve]",–
C=CCN1C(=O)S/C(=C/c2ccc(Sc3nc4ccccc4[nH]3)o2)C1=O,active: 25.1 µM,–
Cc1cc(NC(=O)CO/N=C/c2ccc3c(c2)OCO3)ccc1Br,"inconclusive [inhibitor, single point]",–
NC(=O)[C@@H]1CCCNc2c(I)cc([N+](=O)[O-])cc2C(=O)N[C@@H](CCCN=C(N)N)C(=O)N[C@@H](CCCN=C(N)N)C(=O)N1,"inconclusive [inhibitor, partial curve, poor fit]",–
Cc1c(Cl)cccc1NC(=S)Nc1ccc2[nH]c(=O)[nH]c2c1,"inconclusive [inhibitor, single point]",–
COc1ccc(C2CC(c3cccs3)=NN2c2ccc(C=O)cc2)cc1 (centres undefined),"inconclusive [activator, partial curve]",–

SMILES,Potency,"activity change, negative = inhibition"
Cn1c(CNC2CCCCC2)nc2ccccc21,–,inactive: -7.17%
C=CCn1c(=O)c2ccc(C(=O)NCc3ccccc3)cc2n(Cc2ccc(C)cc2)c1=O,"inconclusive [inhibitor, partial curve]",–
CN(C)c1ccc(-c2cccc(C3CC=CC4C3C(=O)N(Cc3ccccc3)C4c3ccc(C(F)(F)F)cc3)c2)cc1 (centres undefined),"inconclusive [inhibitor, partial curve]",–
CCOc1cccc(OCCOc2ccc(C(=O)c3ccccc3)cc2)c1,"inconclusive [activator, single point]",–
COc1ccc(S(=O)(=O)Nc2ccccc2C(=O)Nc2nc(-c3ccc(F)cc3)cs2)cc1OC,"inconclusive [inhibitor, single point]",–
CCOC(=O)c1cnc2nc[nH]n2c1=O,"inconclusive [inhibitor, partial curve]",–
N#Cc1c(Nc2ccccc2Cl)s[nH]c1=O,"inconclusive [inhibitor, single point]",–
Cc1[nH]c2ccccc2c1/C=C/C(=O)c1ccncc1,–,inactive: -3.78% [at 57.5 µM]
O=C(O)c1ccc(N/N=C/C=C/c2ccccc2)cc1,"inconclusive [inhibitor, single point]",–
CC(C)(C)c1ccc(-c2cn(-c3ccc(Br)cc3)c3[n+]2CCCS3)cc1,–,inactive: 4.64%
CCN(CC(=O)Nc1ccccc1SC)Cc1nc2ccccc2c(=O)[nH]1,"inconclusive [inhibitor, full curve, poor fit]",–
COc1ccccc1CNc1ccnc(-c2ccc3c(c2)OCO3)n1,–,inactive: 19.7%
CCNc1nc2cccnc2s1,–,inactive: -2.39% [at 57.5 µM]
COc1ccc(NS(=O)(=O)c2cc(NC(=O)c3sccc3C)ccc2N2CCOCC2)cc1,"inconclusive [inhibitor, single point]",–
C=CC(N)CCC(=O)O (centres undefined),inactive,–
OCCN1CCN(C(=S)Nc2ccccc2)CC1,"inconclusive [inhibitor, full curve, poor fit]",–
Oc1cc2c(cc1O)[C@H]1c3ccc(O)c(O)c3OC[C@@]1(O)C2,–,inactive: 2.3%
COc1ccc2[nH]c(=O)c(CN(CC3CCCO3)C(=S)Nc3cccc(C)c3)cc2c1 (centres undefined),"inconclusive [inhibitor, partial curve]",–
CCOc1ccc(N=c2cc(-c3ccc(OC)cc3)oc3ccccc23)cc1,"inconclusive [inhibitor, partial curve]",–
O=C(CSc1c(F)c(F)cc(F)c1F)Nc1ccc(C2SCCS2)cc1,"inconclusive [inhibitor, single point]",–
O=C1N=c2ccccc2=C1c1sc(NS(=O)(=O)c2ccccc2)nc1O,"inconclusive [inhibitor, single point]",–
CCC1CSC(Nc2ccc(C(=O)/C=C/c3ccc(OC)c(OC)c3)cc2)=N1 (centres undefined),"inconclusive [inhibitor, partial curve]",–
Clc1ccc(OCCOCCN2CCc3ccccc3C2)c(Cl)c1,"inconclusive [inhibitor, single point]",–

SMILES,Potency,"activity change, negative = inhibition"
CC1(C)CC(=O)C2=C(C1)NC1=C(C(=O)c3ccccc31)C2c1ccccc1 (centres undefined),"inconclusive [inhibitor, partial curve, poor fit]",–
Cn1nc(C(F)(F)F)c2cc(C(=O)Nc3ccc(F)c(Cl)c3)sc21,"inconclusive [inhibitor, single point]",–
O=C(O)[C@H]1[C@H]2C[C@H]3c4[nH]c5ccccc5c4CCN3C[C@@H]2CC[C@@H]1O,–,inactive: 9.61%
CN(C)c1ccc(C(c2ccc(N(C)C)cc2)c2ccc([N+](=O)[O-])cc2)cc1,active: 14.1 µM,–
COc1cc(/C=C2\SC(=O)N(Cc3ccc(Cl)cc3)C2=O)cc([N+](=O)[O-])c1O,"inconclusive [inhibitor, partial curve]",–
COc1ccc(/C=N/NC(=O)CCn2cnc(-c3ccccc3)c2-c2ccccc2)cc1OC,"inconclusive [inhibitor, single point]",–
Brc1ccc(C=Nc2ccc(Nc3ccccc3)cc2)s1,"inconclusive [inhibitor, single point]",–
COc1ccc(/C=N/NC(=O)c2ccc(F)cc2)cc1CN1CCc2cc(OC)c(OC)cc2C1C (centres undefined),–,inactive: 6.03%
COc1ccc(C2(C(=O)c3ccccc3)C(=O)c3ccccc3C2=O)cc1,"inconclusive [inhibitor, partial curve]",–
COc1ccccc1N1CCN(C(=O)c2ccc(Cl)c(S(=O)(=O)N3CCCC3)c2)CC1,"inconclusive [inhibitor, single point]",–
C/C(=N/NC(=O)c1ccn(C)n1)c1ccncc1,–,inactive: 5.86% [at 57.5 µM]
CCCCCCCCCCCCCCCC[n+]1ccc(C(N)=O)cc1,"inconclusive [inhibitor, single point]",–
Cc1cccc(NS(=O)(=O)c2ccc(C)c(C(N)=O)c2)c1,"inconclusive [inhibitor, partial curve]",–
CCC(=O)NC(=S)Nc1ccc(NC(=O)c2ccc(OC)cc2)cc1,"inconclusive [inhibitor, single point]",–
Cc1ccc(Nc2nc(N)c([N+](=O)[O-])c(NCc3ccco3)n2)cc1C,–,inactive: -2.23%
CCN(CC)CCCCn1c(-c2ccccc2)nc2c(Nc3ccccc3)nc(C)nc21,–,inactive: -3.44%
O=C(CN1CCCCC1)NC(=O)NC1CCCC1,"inconclusive [activator, full curve, poor fit]",–
COc1cccc(CN(C)C(=O)c2cc(COc3ccc4ncccc4c3)on2)c1,"inconclusive [inhibitor, partial curve]",–
CC=C(/C(=C/C)c1ccc(O)cc1)c1ccc(O)cc1,–,inactive: 6.51% [at 25.7 µM]
COc1ccc([C@@H]2CC(=O)c3c(O)cc(O)cc3O2)cc1O,"inconclusive [activator, single point]",–
CCCCN(C)Cc1c(C)[nH]c2ccccc2c1=O,–,inactive: -0.387%
CCN(CC)CCOC(=O)C1(C2CCCCC2)CCCCC1,"inconclusive [inhibitor, single point]",–
COC(=O)C1(CC(C)C)C=C2C(=C(c3ccccc3)C(=O)C2C)CN1 (centres undefined),"inconclusive [inhibitor, single point]",–
